T1: rBCMA conjugated with AF647 (UniProt Q02223 1-54, limits assumed, AF647 fluorophore conjugated, site not stated)
T1 construct: also called BCMA-AF647; recombinant BCMA protein labelled with AF647
T1 sequence (looked up): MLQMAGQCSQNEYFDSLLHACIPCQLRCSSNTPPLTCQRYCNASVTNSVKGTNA

B1: 7A8.11 Full-length CAR (other)
chain: EVQLVESGGGLVQPGGSLRLSCEASGFTFSSFWMNWVRQAPGKGLEWVANIKEDGSEKYYVDSVKGRFTISRDNAKNSLYLQMNSLRVEDTAVYYCARALDYYGMDVWGQGTTVTVSSGGGGSGGGGSGGGGSGGGGSYIVMTQTPLSLPVTPGEPASISCRSSQSLLDSDDGNTYLDWYLQKPGQSPQLLIYTLSYRASGVPDRFSGSGSGTDFTLKISRVEAEDVGVYYCMQRIEFPSYTFGQGTKLEIKESKYGPPCPSCPFWVLVVVGGVLACYSLLVTVAFIIFWVKRGRKKLLYIFKQPFMRPVQTTQEEDGCSCRFPEEEEGGCEL[not shown - about 120 residues]
notes: Chimeric antigen receptor on the surface of primary T cells or TREX cells; also called 7A8.11 CAR; 7a8.11 clone
B2: 16C6.6 (other)
CAR chain: QVQLQESGPGLVKPSETLSLTCTVSGGSSSSYYWSWIRQSPGKGLELIGYIYYSGNTNYNPSLKSRVTISVDTSKKQFSLKLSSVTAADTAVYYCARGGYYDSSGYYLDAFDIWGQGTMVTVSSGGGGSGGGGSGGGGSGGGGSQPVLTQPPSASASLGASVTLTCTLSSGYSNYKVDWYQQRPGKGPRFVMRVGTGGIVGSKGDGIPDRFSVLGSGLNRYLTIKNIQEEDESDYHCGADHGSGSNFVYVFGGGTKLTVLESKYGPPCPSCPFWVLVVVGGVLACYSLLVTVAFIIFWVKRGRKKLLYIFKQPFMRPVQTTQEEDGCSCRFPEEEEGGCEL[not shown - about 120 residues]
notes: Anti-BCMA CAR on primary T cells; also called 16C6.6 Full-length CAR; 16C6.6 CAR-T
B3: 20H10.1 (other)
chain: QVQLLQSGAEVKKPGASVKVSCKASGYTFTNYYMYWVRQAPGQGLEWMGIINPGGGGTSYAQMFQGRVTMTRDTSTSTVYMELSSLRSEDTAVYYCASPLWVVTAPYYWGQGTLVTVSSGGGGSGGGGSGGGGSGGGGSQPVLTQPPSASASLGASVTLTCTLSSGYSNYKVDWYQQRPGKGPRFVMRVGTGGIVGSKGDGIPDRFSVLGSGLNRYLTIKNIQEEDESDYHCGADHGSGSNFVYVFGTGTKVTVLESKYGPPCPSCPFWVLVVVGGVLACYSLLVTVAFIIFWVKRGRKKLLYIFKQPFMRPVQTTQEEDGCSCRFPEEEEGGCEL[not shown - about 120 residues]
notes: Anti-BCMA CAR on primary T cells; also called 20H10.1 CAR-T
B4: I09 (other)
chain: EVQLVESGGGLVKPGGSLRLSCAASGFTFSSYSMNWVRQAPGKGLEWVSSISGSSNYIYYADSVKGRFTISRDNAKNSLYLQMNSLRAEDTAVYYCARGGNYFVEYFQQWGQGTLVTVSSGGGGSGGGGSGGGGSGGGGSEIVLTQSPGTLSLSPGERATLSCRASQYISSNYLAWYQQKPGQAPRLLIYGASNRATGIPDRFSGSGSGTDFTLTISRLEPEDFAVYYCQQYSSDPITFGQGTKLEIKESKYGPPCPSCPFWVLVVVGGVLACYSLLVTVAFIIFWVKRGRKKLLYIFKQPFMRPVQTTQEEDGCSCRFPEEEEGGCEL[not shown - about 120 residues]
notes: Anti-BCMA CAR on primary T cells; also called I09 CAR-T

target: T1, rBCMA conjugated with AF647; assay: flow cytometry of primary T cells transduced with the CAR, stained with labelled recombinant BCMA (sheet: rBCMA-APC, APC-A; text: BCMA-AF647 at 1 ug/ml); untransduced T cells (UT) give 0.61 in the same gate
Method: CAR-T cells were labelled with rBCMA conjugated with AF647 (BCMA-AF647) at 1 ug/ml, and fluorescence intensity was measured using flow cytometry. FIG. 3.

Binder	% BCMA CAR+ cells [%]
B1	99.9
B2	99.8
B3	93.4
B4	99.6

— patent US20240350630A1 (AstraZeneca / MedImmune, published 2024)
